# Measured values: PubChem BioAssay (Tox21)
# Several values for one entry are separate records, joined by “and”; a condition that tells them apart may be missing. Equal values may be shown once. Inconclusive results, whose numbers are uncertain, are shown with a selection of clear calls. For some assays here: Where the call is inconclusive, the potency comes from a doubtful curve fit. Activity calls are given as the source filed them. Unless noted, calls follow the shape of the dose curve; as a rule, active = well fitted curve in the direction sought with a large enough effect in the repeat runs; inconclusive = weak or mixed curves; inactive = no such curve, though single readings can be large; an effect the other way counts as inactive or inconclusive.
# Columns and labels:
# [1] = qHTS assay to identify small molecule antagonists of the estrogen related receptor (ERR) signaling pathway from Tox21 library - cell viability counter screen (AID 1224834); settings: ERR reporter cells viability, CellTiter-Fluor, 17.5 h; series mostly up to 92.4 µM; also: nearly all actives have a fitted effect of over 30% in size; also: potency is read from the fitted curve at half-maximal effect
# Summary of the method: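 Seeded ERR cells were rested 6 h at 37 C/5% CO2 before compounds, positive and negative controls or DMSO were added. Incubation continued for 17.5 h, and viability was then quantified by CellTiter-Fluor fluorescence.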
# [2] = qHTS assay to identify small molecule antagonists of the estrogen related receptor signaling pathway with the pleiotropic PPARgamma coactivator (PGC) from Tox21 10K library - cell viability counter screen (AID 1224840; active = well fitted cell-killing curve with a large enough effect in the repeat runs, not every such curve was filed as active; inconclusive = weak or mixed curves, or effect the other way; inactive = no such curve, though single readings can be large or run the other way; also: nearly all actives have a fitted effect of over 40% in size; also: potency is read from the fitted curve at half-maximal effect); settings: PGC/ERR reporter cells viability, CellTiter-Fluor, 17.5 h; series mostly up to 92.4 µM
# Summary of the method: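 Seeded PGC/ERR cells (2,000/well, 6 h, 37 C/5% CO2) get compound by pin tool; 17.5 h incubation at 37 C; CellTiter-Fluor added, 30 min, fluorescence measured.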
# [3] = target: Thyrotropin receptor (Homo sapiens) (UniProt P16473); experiment: qHTS assay to identify small molecule agonists of the thyroid stimulating hormone receptor (TSHR) signaling pathway (AID 1224843; calls by dose curve; also: potency is read from the fitted curve at half-maximal effect; nearly all actives have a fitted effect of over 45% in size); settings: TSHR-HEK293 cells, cAMP HTRF, agonist mode, 30 min; activation: at 92.4 µM (top of the series) unless noted
# Sequence of UniProt P16473 (P16473 whole entry, looked up): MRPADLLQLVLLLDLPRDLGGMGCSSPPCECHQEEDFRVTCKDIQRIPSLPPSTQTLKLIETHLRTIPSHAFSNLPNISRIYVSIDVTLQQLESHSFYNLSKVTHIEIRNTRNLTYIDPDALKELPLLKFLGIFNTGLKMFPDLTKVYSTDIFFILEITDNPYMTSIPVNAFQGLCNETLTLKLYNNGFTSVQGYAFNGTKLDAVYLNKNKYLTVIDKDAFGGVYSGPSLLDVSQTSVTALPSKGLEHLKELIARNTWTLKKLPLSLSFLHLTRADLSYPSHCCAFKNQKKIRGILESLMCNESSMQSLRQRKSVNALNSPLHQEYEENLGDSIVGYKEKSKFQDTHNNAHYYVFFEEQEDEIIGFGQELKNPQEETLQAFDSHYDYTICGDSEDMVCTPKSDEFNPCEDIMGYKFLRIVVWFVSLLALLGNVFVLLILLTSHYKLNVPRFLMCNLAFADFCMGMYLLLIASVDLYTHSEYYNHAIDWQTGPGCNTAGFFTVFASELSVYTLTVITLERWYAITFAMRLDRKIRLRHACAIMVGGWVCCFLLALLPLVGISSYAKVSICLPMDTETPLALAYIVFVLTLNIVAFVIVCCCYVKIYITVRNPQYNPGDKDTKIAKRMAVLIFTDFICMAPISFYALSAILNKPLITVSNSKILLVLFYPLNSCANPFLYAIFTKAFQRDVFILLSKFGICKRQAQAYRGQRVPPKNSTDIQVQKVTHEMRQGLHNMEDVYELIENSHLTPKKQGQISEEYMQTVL
# Summary of the method: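 Agonist activity read as cAMP rise via d2/cryptate HTRF competition, 1 h room-temperature detection, in HEK293 cells expressing TSHR. Fifteen-point titrations, each run in triplicate, with a 30 min room-temperature incubation beforehand.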
# [4] = qHTS assay to identify small molecule agonists of the hypoxia (HIF-1) signaling pathway - cell viability counter screen (AID 1224844; calls by dose curve; also: potency is read from the fitted curve at half-maximal effect; nearly all actives have a fitted effect of over 50% in size); settings: HRE-bla ME-180 viability, CellTiter-Glo luminescence, 17 h; series mostly up to 76.8 µM
# Summary of the method: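 HRE-bla ME-180; 0.5% dFBS; cpd 17 h, 37C, 5% CO2; CellTiter-Glo lum., 30 min RT, post-FRET read, same wells.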
# [5] = qHTS assay to identify small molecule agonists of H2AX (AID 1224845; active = well fitted activation curve with a large enough effect in the signal ratio in the repeat runs, not every such curve was filed as active; inconclusive = weak or mixed curves; the % refers to the signal ratio; also: potency is read from the fitted curve at half-maximal effect; as to activation (H2AX phosphorylation): % is scaled to controls: 0 for no effect and ±100 for the full control effect); settings: CHO-K1 phospho-H2AX Ser139 HTRF, 3 h; activation (H2AX phosphorylation): at 154 µM (top of the series) unless noted
# Summary of the method: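 Phospho-H2AX Ser139 measured by HTRF (ex 320 nm; em 665 and 620 nm) after 24 hr antibody incubation. Compounds, 15 concentrations, 0.76% DMSO, were applied to CHO-K1 cells for 3hr at 37C before lysis.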
# [6] = target: Nuclear receptor subfamily 1 group I member 3 (Homo sapiens) (UniProt Q14994); experiment: qHTS assay to identify small molecule agonists of the constitutive androstane receptor (CAR) signaling pathway (AID 1224839); settings: HepG2 hCAR CYP2B6-luciferase, agonist mode, 24 h; series mostly up to 92.4 µM; also: potency is read from the fitted curve at half-maximal effect; nearly all actives have a fitted effect of over 15% in size
# Sequence of UniProt Q14994 (Q14994 whole entry, looked up): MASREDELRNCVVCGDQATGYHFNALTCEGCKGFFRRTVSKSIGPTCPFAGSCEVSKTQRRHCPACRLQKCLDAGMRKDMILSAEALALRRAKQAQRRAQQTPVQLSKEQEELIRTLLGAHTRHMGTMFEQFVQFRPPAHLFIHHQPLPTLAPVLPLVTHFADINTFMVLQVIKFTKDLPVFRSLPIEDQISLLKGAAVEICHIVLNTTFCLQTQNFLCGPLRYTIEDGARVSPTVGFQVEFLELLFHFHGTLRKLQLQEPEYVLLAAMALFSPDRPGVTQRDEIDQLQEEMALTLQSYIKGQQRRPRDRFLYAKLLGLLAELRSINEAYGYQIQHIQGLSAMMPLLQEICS
# Summary of the method: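 Readout: firefly luciferase luminescence via ONE-Glo. System: HepG2 double-stable for hCAR and CYP2B6-2.2kb. Conditions: 15-point compound titration, PK11195 at 0.75 uM final, 24 h incubation.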
# [7] = qHTS assay to identify small molecule antagonists of the estrogen related receptor signaling pathway with the pleiotropic PPARgamma coactivator (PGC) from Tox21 10K library (AID 1224841; call rule not given here; also: actives are mostly falling curves and most rising ones were filed inactive; nearly all actives have a fitted effect of over 50% in size; also: potency is read from the fitted curve at half-maximal effect); settings: PGC/ERR reporter cell line, ONE-Glo luciferase, 18 h; series mostly up to 92.4 µM
# Summary of the method: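 Test chemicals dissolved in DMSO were applied to pre-incubated (6 h) PGC/ERR cells at 2,000 cells/well for an 18 h, 37 C treatment; reporter luminescence was then read using One-Glo.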
# [8] = qHTS assay to identify small molecule antagonists of the constitutive androstane receptor (CAR) signaling pathway - cell viability counter screen (AID 1224837); settings: HepG2-CYP2B6-hCAR viability, CellTiter-Fluor, 23 h, co-treated with 50 nM CITCO; series mostly up to 92.4 µM; also: nearly all actives have a fitted effect of over 45% in size; also: potency is read from the fitted curve at half-maximal effect; as to activity change, negative = cytotoxicity: % is scaled to controls: 0 for no effect and ±100 for the full control effect
# Summary of the method: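 To flag cytotoxic false antagonists, HepG2 hCAR/CYP2B6-2.2kb cells were treated 23 hr with 15-concentration compound series and 50 nM CITCO at 37 C/5% CO2; CellTiter-Fluor fluorescence was the measured end point.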
# [9] = qHTS assay to identify small molecule agonists of the estrogen related receptor (ERR) signaling pathway from Tox21 library (AID 1224849; calls by dose curve; also: % is scaled to controls: 0 for no effect and ±100 for the full control effect; nearly all actives have a fitted effect of over 15% in size); settings: ERR reporter cell line, ONE-Glo luciferase, 18 h; at 92.4 µM (top of the series) unless noted
# Summary of the method: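 Tox21 compounds tested for ERR agonism in an NTP reporter cell line: 18 h treatment at 37 C, then ONE-Glo luminescence.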
# [10] = qHTS assay to identify small molecule agonists of the estrogen related receptor signaling pathway with the pleiotropic PPARgamma coactivator (PGC) from Tox21 10K library (AID 1224842); settings: PGC/ERR reporter cell line, luciferase ONE-Glo, 18 h; series mostly up to 42.5 µM; also: potency is read from the fitted curve at half-maximal effect; nearly all actives have a fitted effect of over 15% in size
# Summary of the method: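 Luminescence from One-Glo (30 min, room temperature) measured after PGC/ERR cells had 18 h at 37 C with pinned compound (23 nL in DMSO). Cells had been seeded at 2,000 per well and pre-incubated 6 h.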
# [11] = qHTS assay to identify small molecule antagonists of the estrogen related receptor (ERR) signaling pathway from Tox21 library (AID 1224848); settings: ERR reporter cell line, luciferase antagonist mode, 18 h; series mostly up to 92.4 µM; also: potency is read from the fitted curve at half-maximal effect; nearly all actives have a fitted effect of over 50% in size
# Summary of the method: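 Luciferase luminescence (ONE-Glo, 30 min room temperature) was the read-out. Cells of the NTP-supplied ERR line, 2,000 per well, were given 6 h at 37 C before compound addition in DMSO and 18 h exposure at 37 C.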
# [12] = qHTS RealTime-Glo MT Cell Viability Assay in HEK293 cells - 32 hour (AID 1224868); settings: RealTime-Glo luminescence; series mostly up to 76.8 µM; also: nearly all actives have a fitted effect of over 50% in size; also: potency is read from the fitted curve at half-maximal effect; as to activity change, negative = cytotoxic: top concentration of the series differs between compounds; % is scaled to controls: 0 for no effect and ±100 for the full control effect
# Summary of the method: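 Assay medium contained NanoLuc luciferase plus cell-permeant prosubstrate, added with HEK293 cells at 600 cells/well. After 5 h at 37 C/5% CO2 compounds were added; plates stayed at 37 C for 40 h with serial luminescence reads.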
# [13] = qHTS assay to identify small molecule agonists of H2AX - cell viability counter screen (AID 1224847; calls by dose curve; also: nearly all actives have a fitted effect of over 30% in size; also: potency is read from the fitted curve at half-maximal effect;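 as to activity change, negative = cytotoxicity: wild-type CHO-K1 cells; top concentration of the series differs between compounds; % is scaled to controls: 0 for no effect and ±100 for the full control effect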); settings: CHO-K1 viability, CellTiter-Glo luminescence, 3 h; series mostly up to 154 µM
# Summary of the method: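 For this counter screen, overnight-attached CHO-K1 cells received test compounds (15 concentrations, 0.76% DMSO final); 3 hr later at 37C, CellTiter-Glo reagent was added and luminescence recorded after 30 min at room temperature.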
# [14] = qHTS RealTime-Glo MT Cell Viability Assay in HepG2 cells - 24 hour (AID 1224867); settings: RealTime-Glo luminescence; series mostly up to 76.8 µM
# Summary of the method: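 qHTS, HepG2, 600 cells/well, RealTime-Glo (NanoLuc + prosubstrate) added with cells; 5 h preincubation; DMSO compound addition; 37 C; luminescence at 0/8/16/24/32/40 h.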
# [15] = qHTS assay to identify small molecule agonists of the constitutive androstane receptor (CAR) signaling pathway - cell viability counter screen (AID 1224836); settings: HepG2-CYP2B6-hCAR viability, CellTiter-Fluor, 23 h, PK11195 added to every well; series mostly up to 92.4 µM; also: potency is read from the fitted curve at half-maximal effect; nearly all actives have a fitted effect of over 45% in size
# Summary of the method: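 Double-stable HepG2 hepatoma cells (hCAR plus CYP2B6-2.2kb) are treated for 23 h at 37 C with test compounds in 15-point concentration series. PK11195 at 0.75 uM final is co-added. Cell viability is quantified by CellTiter-Fluor.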
# [16] = qHTS assay to identify small molecule agonists of the hypoxia (HIF-1) signaling pathway (AID 1224846; active = well fitted activation curve with a large enough effect in the signal ratio in the repeat runs, not every such curve was filed as active; inconclusive = weak or mixed curves; the % refers to the signal ratio; also: potency is read from the fitted curve at half-maximal effect); settings: HRE-bla ME-180 cells, beta-lactamase ratio, 17 h; activation: at 76.8 µM (top of the series) unless noted
# Summary of the method: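 Reporter induction in HRE-bla ME-180 cells is taken as agonism: cells sit 5 hrs after plating, receive compounds or DMSO only, incubate 17 hrs at 37C under 5% CO2, and are loaded with CCF4-AM for beta-lactamase FRET measurement.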
# Tags tell the direction and shape of the fitted curve or compound fluorescence and quenching.
smiles,measurement,setting,value
CC(C)Nc1ccc(NC(C)C)c2c1C(=O)c1ccccc1C2=O,Potency,[1],active: 20.1 µM
same,Potency,[2],"inconclusive: 11.3 µM [cytotoxic, partial curve]"
same,Potency,[3],"inconclusive: 4.01 µM [activator, partial curve]"
same,Potency,[4],inconclusive: 20.3 µM [cytotoxic]
same,Potency,[5],"inconclusive: 26.3 µM [falling, partial curve]"
Oc1ccccc1,Potency,[1],"inconclusive: 66.3 µM [rising, partial curve, poor fit]"
same,Potency,[2],inactive
O=C(O)Cc1cc(I)c(Oc2ccc(O)c(I)c2)c(I)c1,Potency,[1],inactive
same,Potency,[6],"inconclusive: 38.6 µM [activator, partial curve]"
same,Potency,[7],"inconclusive: 43.3 µM [falling, partial curve, poor fit]"
same,Potency,[4],active: 38.9 µM
CC(=O)Nc1ncc([N+](=O)[O-])s1,Potency,[1],inactive
same,Potency,[8],inactive
same,Potency,[7],inactive
same,"activity change, positive = activation",[9],inconclusive: 11.7% [at 42.5 µM]
O=C1c2ccccc2Cc2ccccc21,Potency,[1],"inconclusive: 61.6 µM [cytotoxic, partial curve]"
same,Potency,[6],active: 21.8 µM
same,Potency,[10],"inconclusive: 48.9 µM [activator, partial curve]"
same,Potency,[11],"inconclusive: 77.5 µM [inhibitor, single point]"
same,Potency,[12],"inconclusive: 7.82 µM [cytotoxic, full curve]"
CCOc1ccc(Cc2nccc3cc(OCC)c(OCC)cc23)cc1OCC,Potency,[1],"inconclusive: 13.3 µM [cytotoxic, partial curve]"
same,Potency,[8],inconclusive: 33.5 µM [cytotoxic]
same,Potency,[13],"inconclusive: 43.8 µM [cytotoxic, partial curve]"
same,Potency,[14],active: 12 µM
COc1cc2nc(N3CCN(C(=O)c4ccco4)CC3)nc(N)c2cc1OC,Potency,[1],"inconclusive: 16.4 µM [cytotoxic, single point]"
same,Potency,[2],inconclusive: 14.6 µM [cytotoxic]
same,Potency,[4],"inconclusive: 13.1 µM [cytotoxic, single point]"
same,Potency,[5],"inconclusive: 27 µM [falling, partial curve, poor fit]"
same,"activity change, negative = cytotoxicity",[13],inactive: -2.17% [at 31.6 µM]
same,"activity change, negative = cytotoxic",[12],inactive: -17.7% [at 15.8 µM]
C[C@H]1[C@H]2CC[C@H]3[C@@H]4CC=C5C[C@@H](N(C)C)CC[C@]5(C)[C@H]4CC[C@]23CN1C,Potency,[1],inconclusive: 29.8 µM [cytotoxic]
same,Potency,[15],"inconclusive: 29.8 µM [cytotoxic, partial curve, poor fit]"
same,"activity change, positive = activation",[9],inconclusive: 14.6% [at 42.5 µM]
same,Potency,[12],"inconclusive: 12 µM [cytotoxic, partial curve]"
CCOC(=O)C1=C[C@]2(CC)CCCN3CCc4c(n1c1ccccc41)[C@@H]32,Potency,[1],inconclusive: 33.5 µM [cytotoxic]
same,Potency,[6],"inconclusive: 26.6 µM [activator, partial curve]"
same,Potency,[3],active: 18.8 µM
same,Potency,[4],"inconclusive: 21.3 µM [cytotoxic, partial curve, poor fit]"
same,activation (H2AX phosphorylation),[5],inconclusive: 10.8% [at 70.9 µM]
same,Potency,[12],"inconclusive: 21.3 µM [cytotoxic, partial curve]"
Cc1cc(O)c2c(c1)C(=O)c1cc(O)cc(O)c1C2=O,Potency,[1],"inconclusive: 33.6 µM [cytotoxic, single point]"
same,Potency,[8],"inconclusive: 54.5 µM [cytotoxic, partial curve]"
same,Potency,[6],"inconclusive: 33.6 µM [activator, partial curve, poor fit]"
same,Potency,[2],"inconclusive: 48.6 µM [cytotoxic, partial curve]"
same,Potency,[7],"inconclusive: 54.5 µM [falling, partial curve, poor fit]"
same,Potency,[16],"inconclusive: 10.7 µM [falling, partial curve]"
same,Potency,[14],"inconclusive: 49 µM [falling, partial curve, poor fit]"
same,Potency,[12],"inconclusive: 21.4 µM [cytotoxic, partial curve] and inconclusive: 38.9 µM [cytotoxic, partial curve, poor fit]"
COc1ccc(/C=C/c2cc(OC)cc(=O)o2)cc1,Potency,[1],"inconclusive: 27.9 µM [cytotoxic, single point]"
same,Potency,[6],active: 6.26 µM
same,"activity change, positive = activation",[9],active: 55.8% [at 42.5 µM]
same,Potency,[12],active: 11.2 µM
C[C@@H]1C[C@H]2[C@@H]3CCC4=CC(=O)C=C[C@]4(C)[C@@]3(Cl)[C@@H](O)C[C@]2(C)[C@@]1(OC(=O)c1ccco1)C(=O)CCl,Potency,[1],active: 23.7 µM
same,Potency,[2],"inconclusive: 33.5 µM [cytotoxic, single point]"
same,Potency,[4],"inconclusive: 8.49 µM [cytotoxic, partial curve]"
same,Potency,[14],"inconclusive: 19 µM [falling, partial curve]"
